{"source": "ChEMBL document CHEMBL4888484", "about": "“Replenishing the malaria drug discovery pipeline: Screening and hit evaluation of the MMV Hit Generation Library 1 (HGL1) against asexual blood stage Plasmodium falciparum ,using a nano luciferase reporter read-out” (2022)", "note": "Among all 150,000 compounds or so, about 540 (0.36%) showed an effect of 50% or more. This is one part of the list."}
{"tested_on": "Plasmodium falciparum", "assay": "Primary screen in NF54 nanoGlo assay, in single point, at 2uM, 72h; a lower Z score goes with more inhibition", "type": "functional, Erythrocyte", "conditions": "timepoint 72 hour", "units": {"% Inhibition": "%"}}
{"compound": "Cc1nnc(CCNC(=O)[C@]2(C)CCCO2)s1", "% Inhibition": 0, "Z score": 0.03}
{"compound": "O=C(Nc1ccc2c(c1)OCCO2)[C@@H]1CCCCN1S(=O)(=O)c1ccc(Cl)s1", "% Inhibition": -11, "Z score": 2.21}
{"compound": "Cc1nc2cc(OCc3ccccc3)ccc2n1C", "% Inhibition": 35, "Z score": -1.06}
{"compound": "CN(Cc1cscn1)C(=O)[C@H]1CC12CCN(Cc1cc3ccccc3o1)CC2", "% Inhibition": -11, "Z score": 1.47}
{"compound": "COCc1nc(C)cc(N[C@H](C(=O)N2CCCC2)C(C)C)n1", "% Inhibition": -14, "Z score": 1.4}
{"compound": "CC(=O)c1c(C)[nH]c(C(=O)N2CCCc3cc(C)ccc32)c1C", "% Inhibition": -10, "Z score": 0.87}
{"compound": "Cc1ccc(CNC(=O)NC2CN(Cc3ccccc3)CC2C)cn1", "note": "(stereo unspecified)", "% Inhibition": -6, "Z score": 0.67}
{"compound": "O=C(Nc1ccc2c(c1)OCCCO2)c1ccco1", "% Inhibition": 29, "Z score": -3.9}
{"compound": "CC[C@H](NC(=O)N1CCCCCC1)c1cccc(C)n1", "% Inhibition": 3, "Z score": -0.55}
{"compound": "Cc1ccc2c(n1)OCCN2CC(=O)N[C@@H](C)c1ccc(C)c(C)c1", "% Inhibition": -13, "Z score": 1.51}
{"compound": "O=C(c1ncoc1C(F)(F)F)N1CCC12COC2", "% Inhibition": -11, "Z score": 1.75}
{"compound": "NC(=O)c1ccnc(-c2ccccc2OCc2ccccc2)c1", "% Inhibition": -8, "Z score": 1.01}
{"compound": "CCC1c2cccn2CCN1C(=O)CC1(c2ccccc2F)CC(=O)N(C2CCCCC2)C1=O", "note": "(stereo unspecified)", "% Inhibition": -6, "Z score": 1.09}
{"compound": "CC1CN(S(=O)(=O)c2cccc(C(=O)c3cccc(S(=O)(=O)N4CC(C)OC(C)C4)c3)c2)CC(C)O1", "note": "(stereo unspecified)", "% Inhibition": -32, "Z score": 3.77}
{"compound": "Cc1cc(N2C[C@H](O)[C@@H](N3CCN(C)CC3)C2)n2nccc2n1", "% Inhibition": 1, "Z score": -0.24}
{"compound": "Cc1ccc(C)c(NC(=O)N2CC[C@H](N(CCN3CCCC3)S(=O)(=O)N(C)C)C2)c1", "% Inhibition": 26, "Z score": -2.99}
{"compound": "O=C(c1cnn[nH]1)N1CCOc2ccc(CO)cc2C1", "% Inhibition": -5, "Z score": 0.69}
{"compound": "Cc1nnc(NCc2ccc(N3CCCC3=O)cc2)c(C#N)c1C", "% Inhibition": -17, "Z score": 1.54}
{"compound": "CC(C)(CNC(=O)Nc1ccn2ccnc2c1)C1CCOCC1", "% Inhibition": -19, "Z score": 2.61}
{"compound": "CC(C)C(=O)N1CCc2nc[nH]c2[C@@H]1C1CCN(C(=O)c2cccc(C(=O)O)c2)CC1", "% Inhibition": -6, "Z score": 0.86}
{"compound": "COc1ccc(C(=O)N[C@@H](N2CCCCC2)C(Cl)(Cl)Cl)cc1", "% Inhibition": -9, "Z score": 1.25}
{"compound": "COc1ccc(OC)c(-c2ccnc(-n3ncc(C(=O)NCCCN4CCCC4=O)c3C)n2)c1", "% Inhibition": -10, "Z score": 1.26}
{"compound": "O=C(c1cccc(-n2ccnn2)c1)N(CC(F)(F)F)C1CCC1", "% Inhibition": 1, "Z score": -0.26}
{"compound": "Cc1noc(C)c1CN(C)C(=O)COCC(F)(F)C(F)F", "% Inhibition": -20, "Z score": 1.73}
{"compound": "CC(C)c1cnc(NC(=O)N2CCCn3c(cc4ccccc43)C2)s1", "% Inhibition": 15, "Z score": -3.25}
{"compound": "CC1(C)CC2=NC(Nc3nc4ccccc4s3)=N[C@@H](c3ccccc3)C2=C(O)C1", "% Inhibition": -2, "Z score": 0.31}
{"compound": "OC[C@H]1CCCCN1Cc1cc(-c2ccncc2)no1", "% Inhibition": 10, "Z score": -1.34}
{"compound": "CCC(NC1CCC(=O)N(C)C1)c1cccc(Cl)c1F", "note": "(stereo unspecified)", "% Inhibition": 6, "Z score": -0.86}
{"compound": "COC(=O)c1cc(CN2CC[C@H](S(C)(=O)=O)C2)c(Cl)cc1O", "% Inhibition": 3, "Z score": -0.53}
{"compound": "CC(C)N1CCC[C@H](c2nc(-c3ccncc3)no2)C1", "% Inhibition": -9, "Z score": 1.67}
{"compound": "O=C(NCCC1CS(=O)(=O)C1)c1nccc2cccnc12", "% Inhibition": -6, "Z score": 1.16}
{"compound": "Cc1cscc1NC(=O)NCc1ncc(C(C)(C)C)o1", "% Inhibition": -1, "Z score": 0.13}
{"compound": "CCC[C@H](NC(=O)c1cc(-c2cccnc2)nc2ccccc12)c1cccs1", "% Inhibition": -4, "Z score": 0.77}
{"compound": "CCOC(CN(Cc1cccc(O)c1)[C@H]1CC[C@H](O)CC1)OCC", "% Inhibition": -3, "Z score": 0.37}
{"compound": "CN(C)CCN1C[C@@H](C(=O)NCc2cccc(-c3ccccc3)c2)CC1=O", "% Inhibition": 0, "Z score": 0.05}
{"compound": "CC(C)N1CC[C@H](c2nnc3n2CCN(S(=O)(=O)c2ccccc2Cl)C3)C1", "% Inhibition": 44, "Z score": -5.87}
{"compound": "CC(=O)N[C@H](CC1CCC1)C(=O)NCc1n[nH]c(C(C)(C)C)n1", "% Inhibition": -9, "Z score": 1.03}
{"compound": "COc1ccccc1CC(=O)Nc1cnc(O)nc1O", "% Inhibition": -2, "Z score": 0.29}
{"compound": "CCc1ccccc1NC(=O)COc1cc(C)nc(N2CCCC2)n1", "% Inhibition": -4, "Z score": 0.78}
{"compound": "CC(C)[C@H](NC(=O)c1c(F)cccc1F)C(=O)N1CCC1", "% Inhibition": -12, "Z score": 2.17}
{"compound": "C[C@]1(F)CCCN(C(=O)CCCC#N)C1", "% Inhibition": 5, "Z score": -0.61}
{"compound": "CCN(CC)c1nc(C(=O)NCC(C)C)nc2nc(C)cc(C)c12", "% Inhibition": -11, "Z score": 1.8}
{"compound": "CC(C)c1csc([C@H]2CCCN(Cc3ccc(C(=O)O)cc3F)C2)n1", "% Inhibition": -12, "Z score": 2.02}
{"compound": "Cc1n[nH]c(C)c1CCN(C)Cc1nc(CC2CC2)no1", "% Inhibition": -10, "Z score": 1.48}
{"compound": "Cc1nc(-c2ccccc2F)sc1CNC(=O)c1cc(-c2cccs2)nn1C", "% Inhibition": 0, "Z score": -0.08}
{"compound": "CCNC(=O)c1nn(Cc2ccccc2)c2c1C[C@@H](N1CCC(C(N)=O)CC1)CC2", "% Inhibition": -2, "Z score": 0.2}
{"compound": "Brc1cnn(Cc2nc(-c3ccoc3)no2)c1", "% Inhibition": -11, "Z score": 1.25}
{"compound": "COc1ccc(N2CCN(c3nccc4ccc(C(=O)NCCCN5CCOCC5)cc34)CC2)cc1", "% Inhibition": 7, "Z score": -0.81}
{"compound": "C[C@@H]1CN(C(=O)CN(Cc2ccsc2)C2CCCC2)C[C@H](C)O1", "% Inhibition": 1, "Z score": -0.25}
{"compound": "CC1CC(C)CN(S(=O)(=O)c2ccc(Cl)c(C(=O)NCC(c3ccco3)N3CCCC3)c2)C1", "note": "(stereo unspecified)", "% Inhibition": -16, "Z score": 3.09}
{"compound": "COc1cccc(CN2CCc3c(c(C(=O)N4CCNC(=O)C4)nn3Cc3ccccc3)C2)c1", "% Inhibition": 5, "Z score": -0.86}
{"compound": "NC(=O)[C@@H]1C[C@@H](F)CN1CC1=CCCCC1", "% Inhibition": -17, "Z score": 2.17}
{"compound": "NC(C(=O)NC1CCCCCC1c1ccccc1C(F)(F)F)C1CCCO1", "note": "(stereo unspecified)", "% Inhibition": -11, "Z score": 1.19}
